Measured values published in the RNAGym collection of RNA variant scans (doi:10.7554/elife.90254).
The source gives no read counts; variants with many changes may rest on few reads.

B1: LINE1-full (parent)
chain: UACGUAGGUGGUUUUCCCCUGAUAGUGCUAAGGGGGCCUGGAAGUUUGGACUGGGCAGAGCUCAACACAGCGUGGCAAAGUGGCUGUGGCUAGACUGCCUCUCUGGAUUCCUCGUCACUCAGCAGGGCAUCUCUGAGAGAAAUGCC

Variants of: B1
Assay: self-cleavage, relative activity (ratio to wild type); higher = more cleavage; in vitro, sequencing; the parent is a self-cleaving ribozyme

| Variant | self-cleavage |
| --- | --- |
| UACGUAGGUGGUUUUCCCCUGAUAGUGCUAAGGGGGCCUGGAAGUUCGGACUGGGCAGAGCUCAACACAGCGUGGCAAAGUGGCUGUGGCUAGACUGCCUCUCUGGAUUCCUCGUCACUCAGCAGGGCGUCUCUGUGAGAAAUGCC | 1.49 |
| UACGUAGGUGGUUUUCCCCUGAUAGUGCUAAGGGGGCCUGGAAGUUUGGACUGGGCAGAGCUCAACACAGCGUGGCAAAGUGGCUGUGGCUAGACUGCCUCUCUGGAUUCCUCGUCACUCAGCUGGGCUUCUCUGAGAGGAAUGCC | 1.47 |
| UACGUAGGUGGUUUUCCCCUGAUAGUGCUAAGGGGGCCUGGAAGUUUGGACUGGGCAGAGCUCAGCACAGCGUGGCAAAGUGGCUGUGGUUAGACUGCCUCUCUGGAUUCCUCGUCACUCAGCAGGGCAUCUCUGAGAGAAGUGCC | 0 |
| UACGUAGGUGGUUUUCCCCUGAUAGUGCUAAGGGGGCCUGGAAGUUUGGACUGGGCAGAGCUCAACGCAGCGUGGCAGAGUGGCUGUGGCUAGACUGCCCCUCUGGAUUCCUCGUCACUCAGCAGGGCAUCUCUGAGAGAAAUGCC | 0 |
| UACGUAGGUGGUUUUCCCCUGAUAGUGCUAAGGGGGCCUGGAAGUUUGGACUGGGCUGAGCUCAACACAGCGUGGCAAAGUGGCUGUGGCUAGACUGCCUCUCUGGAUUCCUCGCCACUCAGCAGGGCAUCUCUGAGAGGAAUGCC | 0.08 |
| UACGUAGGUGGGUUUCCCCUGAUAGUGCUAAGGGGGCCUGGAAGUUUGGACUGGGCGGAGCCCAACACAGCGUGGCAAAGUGGCUGUGGCUAGACUGCCUCUCUGGGUUCCACGUCACUCAGCAGGGCAUCUCUGAGAGAAAUGCC | 0.46 |
| UACGUAGGUGGUUUUCCCCUGAUAGUGCUAAGGGGGCCUGGAAGUUUGGACUGGGCAGAGCUCAACACAGCGUGGCGAAGUGGCUGUGGCUAGACUGCCUCUCUGGAUUCCUCGUCACUCAGCAGGGCAUCUCUGAGAGAAGCGCC | 0.84 |
| UACGUAGGUGGUUUUCCCCUGAUAGUGCUAUGGGGGCCUGGAAGUUUGGACUGGGCAGAGCUCUACACAGCGUGGCAAAGUGGCUGUGGCUAGACUGCCUCUCUGGACUCCUCGUCACUCAGCAGGGCAUCUCCGAGAGAAAUGCC | 1.01 |
| UACGUAAGUGGUUUUCCCCUGAUAGGGCUAAGGGGGCCUGGGAGUUUGGACUGGGCAGAGCUCAACACAGCGUGGCAAAGUGGGUAUGGCUAGACUGCCUCUCUGGAUUCCUCGUCACUCAGCAGGGCAUCUCUGAGAGAAAUGCC | 0.15 |
| UACGUAGGUGGUUUUCCCCUGAUAGUGCUAAGGGGGUCUGGAAGUUUGGACUGGGCAGAGCUCAACACAGUGUGGCAAAGUGGCUGUGGCUAGACUGCCUCUCUGGACUCCUCGUCACUCAGCAGGGCGUCUCUGAGAGAAAUGCC | 0.87 |
| UACGUAGGUGGUUUUCCCCUGAUAGUGCUAAGGGGGCCUGGAAGUUUGGACUGGGCAGAGCUCAAUACAGCGUGGCAAGGUGGCUGUGGCUAGACUGCCUCUCUGGAUUCCUCGUCACUCAGCAGGGCGUCUCUGAGAGAAAUGCC | 0 |
| UACGUAGGUGGUUCUCCCCUGAUAGUGCUAAGGGGGCCUGGAAGUUAGGACUGGGCAGAGCUCAACACUGCAUGGCAAAGUGGCUGUGGCUGGACUGCCUCUCUGGAUUCCUCGUCACUCAGCAGGGCAUCUCUGAGAGAGGUGCC | 0.1 |
| UACGUAGGUGGUUUUCCCCUGAUAGUGCUAAGGGGGCCUGGAAGUUUGGACUGGGCAGAGCUCAACACAGCGUGGCAAAGUGGCCGUGGCUUGACUGCCUCUCUGGAUUCCUCGACACUCAGCAGGGCAUCUCUGAGAGAAAUGCC | 0.21 |
| UCCGUAGGUGGUUUUCCCCUGAAAGUGCUAAGGGGGCCUGGAAGUUUGGACUGGGCAGAGCUCAACACAGCGUGGCAAAGUGGCUGUGGCUAGACUGCCUCUCUGGAUUCCUCGUCACUCAGCAGGGCAUCUCUGGGAGAAAUGCC | 1.7 |
| UACGUAGGUGGUUUUCCCCGGAUAGUGCUAAGGGGGCCUGGAAGUUUGGACUGGGCAGAGCUCAGCACGGCGUGGCAAAGUGGCUGUGGCUAGACUGCCUCUCUGGAUUCCUCGUCACUCAGCAGGACACCUCUGAGAGAAAUGCC | 0.19 |
| UACGUGGGUGGUUUUCCCCUGAUAGUGCUAAGGGGGCCCGGAAGUUUGGACUGGGCAGAGCUCAACACGGCGUGGCAAAGUGGCUGUGGCUAGACUGCCUCUCUGGAUCCCUCGUCACUCAGCAGGGCAUCUCUGAGAGAAAUGCC | 1.31 |
| UACGUAGGUGGUUCUCCCCUGAUAGUGCUAAGGGGGCCUGGAAGUUUGGACUGGGCAGAGCCCAACACAGCGUGGCAAAGUGGCUGUGGCUAGAAUGCCUCUCUGGAUUCCUCGUCACUCAGCAGGGCAUCUCUGAGAGAAAUGCC | 0.01 |
| UACGUAGGUGGUUUUCCCCUGAUAGUGCUAAGGGGGCCUGGAGGUUUGGACUGGGCAGAGCUCAACACAGCGUGGCAAAGUGGCUGUGGCUAGACUGCCUCUCUGGAUUCCUCGUCACUCAGCAAGGCGUCUCUGAGAGAAAUGCC | 1.31 |
| UACGUAGGUGGGUUUCCCCUGAUAGUGCUAAGGGGGCCUGGAAGUUUGGACUGGGCAGAGCUCAUCACAGCGUGGCAAAGUGGCUGUGGCUAGACUGCCUCUCUGGAUUCCUCGUCACCCAGCAGGGCAUCUCUGAGAGGAGUGCC | 0.53 |
